Starred links: 1 amine or outer side, 2 acyl side, 3 side chain; linkers in the order of their positions; H or OH if unused. Positions of bridges follow the written chain, without caps; N, C: chain ends. Non-standard residues stand in square brackets, D forms with d. Residues, ends and D or L forms follow the SMILES beside them. *: point of attachment. dAsp(3R-OH) = N[C@@H](C(=O)O)[C@@H](O)C(=O)O; Palmitoleoyl = CCCCCC/C=C\CCCCCCCC(=O)*; X1 = NC[C@H](O)[C@@H](N[*:1])C(=O)[*:2]; X2 = CCC(C)(O)[C@H](N[*:1])C(=O)[*:2]; d(aIle) = CC[C@H](C)[C@@H](N)C(=O)O; dOrn = NCCC[C@@H](N)C(=O)O; hSer = N[C@@H](CCO)C(=O)O
Test system: A. baumannii (ATCC 19606)

Row | Compound | inoculum effect, starting cell density (Mueller Hinton broth) [CFU/mL] | change in MIC of the surviving strain (surviving colony selected with 2)
1 | CCCCCC/C=C\CCCCCCCC(=O)N[C@H](CCCN)C(=O)N[C@@H](CO)C(=O)N[C@H](C(=O)N[C@@H](C(=O)N[C@@H](C(=O)N[C@@H]1C(=O)NCC(=O)N[C@@H](C(C)(O)CC)C(=O)N[C@H]([C@@H](C)CC)C(=O)N[C@@H](CCO)C(=O)N[C@@H](C)C(=O)N[C@H]([C@@H](C)CC)C(=O)N[C@@H](CCC(=O)O)C(=O)O[C@@H]1C)[C@@H](O)CN)[C@@H](O)C(=O)O)C(C)C (stereo partly drawn) [Compound 2, Turnercyclamycin B] (Palmitoleoyl-[dOrn]SV[dAsp(3R-OH)][X1]TG[X2][d(aIle)][hSer]A[d(aIle)]E; ester 6-C) | ~104 | –
2 | Colistin [reference compound] | – | no changes in its MIC

— patent publication US12215129B2, “Antibacterial cyclopeptides targeting acinetobacter and other gram-negative pathogens” (priority 2020, dated 2025)
